# The entries are a selection whose mix differs from that of the whole data set. Inconclusive results are not listed. Activity calls are given as the source filed them. Rule for the calls, unless noted: active = hit-call score of the fitted dose curve at least 0.9, where 1 is the maximum; inconclusive = response in the unintended direction; inactive = score below 0.9.
# Legend:
# [1] = molecular target: Peroxisome proliferator-activated receptor gamma (Homo sapiens) (UniProt P37231); experiment: ATG_PPARg_TRANS: Attagene TRANS-FACTORIAL HepG2 Assay for human Peroxisome Proliferator-activated Receptor-gamma (PPARg) (AID 2283007)
# Chain of UniProt P37231 (P37231 whole entry, looked up, the tested form may be a part): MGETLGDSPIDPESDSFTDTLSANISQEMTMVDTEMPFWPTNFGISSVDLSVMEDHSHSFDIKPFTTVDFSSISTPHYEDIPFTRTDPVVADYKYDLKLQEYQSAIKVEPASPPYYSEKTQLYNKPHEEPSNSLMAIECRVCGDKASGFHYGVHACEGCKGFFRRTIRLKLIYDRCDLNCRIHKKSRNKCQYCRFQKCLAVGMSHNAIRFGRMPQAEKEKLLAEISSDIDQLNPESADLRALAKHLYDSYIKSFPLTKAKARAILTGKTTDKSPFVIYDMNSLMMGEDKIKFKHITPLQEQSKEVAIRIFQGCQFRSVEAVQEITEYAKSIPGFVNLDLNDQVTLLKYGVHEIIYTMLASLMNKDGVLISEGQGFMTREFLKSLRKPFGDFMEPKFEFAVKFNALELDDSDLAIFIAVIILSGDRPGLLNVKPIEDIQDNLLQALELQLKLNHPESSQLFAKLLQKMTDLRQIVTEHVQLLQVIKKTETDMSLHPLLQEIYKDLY
# How it was run: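 HepG2 cells transiently transfected with multiplexed GAL4-UAS reporter units and exogenous chimeric NR-Gal4 proteins; reporter mRNA quantified after 24 h compound exposure by RT-PCR, fluorescent labelling, HpaI digestion and capillary electrophoresis; gain-of-signal fitted versus DMSO baseline.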
# [2] = read-out: DNA damage-inducible transcript 3 (DDIT3), DDIT3 (gene 1649); experiment: LTEA_HepaRG_DDIT3: Life Technologies and Expression Analysis (LTEA) Assay for DNA damage-inducible transcript 3 (DDIT3) using HepaRG (AID 2283488; active = hit-call score of the fitted dose curve at least 0.9, where 1 is the maximum; inactive = score below 0.9); conditions: actives raise or lower the signal; mRNA level, 48 h
# How it was run: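 DDIT3 transcript was quantified by qRT-PCR with ACTB/GAPDH/POLR2A normalization after 48 h chemical treatment of differentiated HepaRG cells in 0.5% DMSO. Dosing was eight-point, half-log, top 100 uM, duplicate wells. Curves fitted bidirectionally versus DMSO.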
# [3] = read-out: NAD(P)H dehydrogenase [quinone] 1 (NQO1), NQO1 (gene 1728); experiment: LTEA_HepaRG_NQO1: Life Technologies and Expression Analysis (LTEA) Assay for NAD(P)H dehydrogenase [quinone] 1 (NQO1) using HepaRG (AID 2283526; active = hit-call score of the fitted dose curve at least 0.9, where 1 is the maximum; inactive = score below 0.9); conditions: actives raise or lower the signal; mRNA level, 48 h
# How it was run: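 NQO1 transcript induction or loss measured by TaqMan qRT-PCR, referenced to three housekeeping genes and fitted bidirectionally against 0.5% DMSO. HepaRG cultures exposed 48 h, duplicate, eight-point half-log series, top 100 uM.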
# [4] = read-out: C-C motif chemokine 2 (Homo sapiens) (UniProt P13500); experiment: BSK_KF3CT_MCP1: BioMAP Diversity Plus: KF3CT Assay for Monocyte Chemoattractant Protein 1 (MCP1/CCL2) Biomarker Activity (AID 2283073; active = hit-call score of the fitted dose curve at least 0.9, where 1 is the maximum; inactive = score below 0.9); conditions: actives raise or lower the signal; primary human keratinocytes with fibroblasts
# How it was run: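 ELISA read-out of MCP-1, 24 h post-dose, in primary human skin keratinocytes co-cultured with fibroblasts. Parallel SRB staining monitors cytotoxicity; changes fitted both directions relative to DMSO.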
# [5] = Tanguay_ZF_120hpf_PE_legacy: (Legacy) Oregon State University Tanguay Lab 120 Hour Post-fertilization zebrafish Assay for Pericardial Edema (AID 2283640)
# Chain of C-C motif chemokine 2 (Homo sapiens) (P13500 whole entry, looked up): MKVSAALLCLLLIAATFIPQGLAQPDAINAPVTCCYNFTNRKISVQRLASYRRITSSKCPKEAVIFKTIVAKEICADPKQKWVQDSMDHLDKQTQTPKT
Compound,outcome [1],AC50 [2],outcome [3],AC50 [1],outcome [4],outcome [5]
CCC(C)n1c(=O)[nH]c(C)c(Br)c1=O (stereo unspecified),inactive,active: 9.92 µM,inactive,,,
O=S(=O)(O)C(F)(F)C(F)(F)C(F)(F)C(F)(F)C(F)(F)C(F)(F)F,,,,active: 80.3 µM,inactive,inactive

# Reference: PubChem BioAssay (EPA / NIEHS)
